The source of these data is patent publication US20250277055A1 (SAMSUNG BIOLOGICS, published 2025).

For the assay, the target named is T1, VEGF (UniProt P15692-4 27-191).
T1 sequence (looked up): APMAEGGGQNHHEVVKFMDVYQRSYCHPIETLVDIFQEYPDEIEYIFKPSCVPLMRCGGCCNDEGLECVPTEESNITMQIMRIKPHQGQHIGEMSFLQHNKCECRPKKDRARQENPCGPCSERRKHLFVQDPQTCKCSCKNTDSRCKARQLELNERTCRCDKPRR
The assay can be described thus: cell-based or functional assay.

B1: Q-SBL9 (bispecific antibody, human IgG1, kappa)
heavy 1: [letters of about 120 residues not shown]ASPREPQVYTLPPCREEMTKNQVSLSCAVKGFYPSDIAVEWESNGQPENNYKTTPPVLDSDGSFFLVSKLTVDKSRWQQGNVFSCSVMHEALHNHYTQKSLSLSPGKGGGGSASTKGPSVFPLAPSSKSTSGGTAALGCLVKDYFPEPVTVSWNSGALTSGVHTFPAVLQSSGLYSLSSVVTVPSSSLGTQTYICNVNHKPSNTKVDKKVEPKSSDKTHTCPPCPAPELLGGPSVFLFPPKPKDTLMISRTPEVTCVVVDVSHEDPEVKFNWYVDGVEVHNAKTKPREEQYNSTYRVVSVLTVLHQDWLNGKEYKCKVSNKALPAPIEKTISKAKGQPREPQVCTLPPSREEMTKNQVSLSCAVKGFYPSDIAVEWESNGQPENNYKTTPPVLDSDGSFFLVSKLTVDKSRWQQGNVFSCSVMHEALHNHYTQKSLSLSPGK
light 1: [letters of about 100 residues not shown]RTPREPQVCTLPPSREEMTKNQVSLWCLVKGFYPSDIAVEWESNGQPENNYKTTPPVLDSDGSFFLYSKLTVDKSRWQQGNVFSCSVMHEALHNHYTQKSLSLSPGKGGGGSRTVAAPSVFIFPPSDEQLKSGTASVVCLLNNFYPREAKVQWKVDNALQSGNSQESVTEQDSKDSTYSLSSTLTLSKADYEKHKVYACEVTHQGLSSPVTKSFNRGES
heavy 2: EVQLVESGGGLVQPGGSLRLSCAASGYTFTNYGMNWVRQAPGKGLEWVGWINTYTGEPTYAADFKRRFTFSLDTSKSTAYLQMNSLRAEDTAVYYCAKYPHYYGSSHWYFDVWGQGTLVTVSSASTKGPSVFPLAPSSKSTSGGTAALGCLVKDYFPEPVTVSWNSGALTSGVHTFPAVLQSSGLYSLSSVVTVPSSSLGTQTYICNVNHKPSNTKVDKKV[letters of human IgG1 Fc with changes not shown]
light 2: DIQMTQSPSSLSASVGDRVTITCSASQDISNYLNWYQQKPGKAPKVLIYFTSSLHSGVPSRFSGSGSGTDFTLTISSLQPEDFATYYCQQYSTVPWTFGQGTKVEIKRTVAAPSVFIFPPSDEQLKSGTASVVCLLNNFYPREAKVQWKVDNALQSGNSQESVTEQDSKDSTYSLSSTLTLSKADYEKHKVYACEVTHQGLSSPVTKSFNRGEC
Take B1: the “IC50 (nM) in HUVEC proliferation assay” value was determined as 5.48 nM.

B2: Q-SBL3 (bispecific antibody, human IgG1, kappa)
heavy 1: [letters of about 120 residues not shown]ASPREPQVCTLPPSREEMTKNQVSLSCAVKGFYPSDIAVEWESNGQPENNYKTTPPVLDSDGSFFLVSKLTVDKSRWQQGNVFSCSVMHEALHNHYTQKSLSLSPGKGGGGSGGGGSGGGGSASTKGPSVFPLAPSSKSTSGGTAALGCLVKDYFPEPVTVSWNSGALTSGVHTFPAVLQSSGLYSLSSVVTVPSSSLGTQTYICNVNHKPSNTKVDKKV[letters of human IgG1 Fc with changes not shown]
light 1: [letters of about 100 residues not shown]RTPREPQVYTLPPCREEMTKNQVSLWCLVKGFYPSDIAVEWESNGQPENNYKTTPPVLDSDGSFFLYSKLTVDKSRWQQGNVFSCSVMHEALHNHYTQKSLSLSPGKGGGGSGGGGSGGGGSRTVAAPSVFIFPPSDEQLKSGTASVVCLLNNFYPREAKVQWKVDNALQSGNSQESVTEQDSKDSTYSLSSTLTLSKADYEKHKVYACEVTHQGLSSPVTKSFNRGES
heavy 2: EVQLVESGGGLVQPGGSLRLSCAASGYTFTNYGMNWVRQAPGKGLEWVGWINTYTGEPTYAADFKRRFTFSLDTSKSTAYLQMNSLRAEDTAVYYCAKYPHYYGSSHWYFDVWGQGTLVTVSSASTKGPSVFPLAPSSKSTSGGTAALGCLVKDYFPEPVTVSWNSGALTSGVHTFPAVLQSSGLYSLSSVVTVPSSSLGTQTYICNVNHKPSNTKVDKKV[letters of human IgG1 Fc with changes not shown]
light 2: DIQMTQSPSSLSASVGDRVTITCSASQDISNYLNWYQQKPGKAPKVLIYFTSSLHSGVPSRFSGSGSGTDFTLTISSLQPEDFATYYCQQYSTVPWTFGQGTKVEIKRTVAAPSVFIFPPSDEQLKSGTASVVCLLNNFYPREAKVQWKVDNALQSGNSQESVTEQDSKDSTYSLSSTLTLSKADYEKHKVYACEVTHQGLSSPVTKSFNRGEC
For B2, the “IC50 (nM) in HUVEC proliferation assay” value was 3.47 nM.

B3: Q-SBL2 (bispecific antibody, human IgG1, kappa)
heavy 1: [letters of about 120 residues not shown]ASPREPQVCTLPPSREEMTKNQVSLSCAVKGFYPSDIAVEWESNGQPENNYKTTPPVLDSDGSFFLVSKLTVDKSRWQQGNVFSCSVMHEALHNHYTQKSLSLSPGKGGGGSASTKGPSVFPLAPSSKSTSGGTAALGCLVKDYFPEPVTVSWNSGALTSGVHTFPAVLQSSGLYSLSSVVTVPSSSLGTQTYICNVNHKPSNTKVDKKV[letters of human IgG1 Fc with changes not shown]
light 1: [letters of about 100 residues not shown]RTPREPQVYTLPPCREEMTKNQVSLWCLVKGFYPSDIAVEWESNGQPENNYKTTPPVLDSDGSFFLYSKLTVDKSRWQQGNVFSCSVMHEALHNHYTQKSLSLSPGKGGGGSRTVAAPSVFIFPPSDEQLKSGTASVVCLLNNFYPREAKVQWKVDNALQSGNSQESVTEQDSKDSTYSLSSTLTLSKADYEKHKVYACEVTHQGLSSPVTKSFNRGES
heavy 2: EVQLVESGGGLVQPGGSLRLSCAASGYTFTNYGMNWVRQAPGKGLEWVGWINTYTGEPTYAADFKRRFTFSLDTSKSTAYLQMNSLRAEDTAVYYCAKYPHYYGSSHWYFDVWGQGTLVTVSSASTKGPSVFPLAPSSKSTSGGTAALGCLVKDYFPEPVTVSWNSGALTSGVHTFPAVLQSSGLYSLSSVVTVPSSSLGTQTYICNVNHKPSNTKVDKKV[letters of human IgG1 Fc with changes not shown]
light 2: DIQMTQSPSSLSASVGDRVTITCSASQDISNYLNWYQQKPGKAPKVLIYFTSSLHSGVPSRFSGSGSGTDFTLTISSLQPEDFATYYCQQYSTVPWTFGQGTKVEIKRTVAAPSVFIFPPSDEQLKSGTASVVCLLNNFYPREAKVQWKVDNALQSGNSQESVTEQDSKDSTYSLSSTLTLSKADYEKHKVYACEVTHQGLSSPVTKSFNRGEC
As to B3, the “IC50 (nM) in HUVEC proliferation assay” value worked out at 5.01 nM.

B4: R-SBL2 (bispecific antibody, human IgG1, kappa)
heavy 1: [letters of about 120 residues not shown]ASPREPQVCTLPPSREEMTKNQVSLSCAVKGFYPSDIAVEWESNGQPENNYKTTPPVLDSDGSFFLVSKLTVDKSRWQQGNVFSCSVMHEALHNHYTQKSLSLSPGKGGGGSASTKGPSVFPLAPSSRSTSESTAALGCLVKDYFPEPVTVSWNSGALTSGVHTFPAVLQSSGLYSLSSVVTVPSSSLGTKTYTCNVDHKPSNTKVDKRV[letters of human IgG1 Fc with changes not shown]
light 1: [letters of about 100 residues not shown]RTPREPQVYTLPPCREEMTKNQVSLWCLVKGFYPSDIAVEWESNGQPENNYKTTPPVLDSDGSFFLYSKLTVDKSRWQQGNVFSCSVMHEALHNHYTQKSLSLSPGKGGGGSRTVAAPSVFIFPPSDEQLKSGTASVVCLLNNFYPREAKVQWKVDNALQSGNSQESVTEQDSKDSTYSLSSTLTLSKADYEKHKVYACEVTHQGLSSPVTKSFNRGES
heavy 2: EVQLVESGGGLVQPGGSLRLSCAASGYTFTNYGMNWVRQAPGKGLEWVGWINTYTGEPTYAADFKRRFTFSLDTSKSTAYLQMNSLRAEDTAVYYCAKYPHYYGSSHWYFDVWGQGTLVTVSSASTKGPSVFPLAPSSKSTSGGTAALGCLVKDYFPEPVTVSWNSGALTSGVHTFPAVLQSSGLYSLSSVVTVPSSSLGTQTYICNVNHKPSNTKVDKKV[letters of human IgG1 Fc with changes not shown]
light 2: DIQMTQSPSSLSASVGDRVTITCSASQDISNYLNWYQQKPGKAPKVLIYFTSSLHSGVPSRFSGSGSGTDFTLTISSLQPEDFATYYCQQYSTVPWTFGQGTKVEIKRTVAAPSVFIFPPSDEQLKSGTASVVCLLNNFYPREAKVQWKVDNALQSGNSQESVTEQDSKDSTYSLSSTLTLSKADYEKHKVYACEVTHQGLSSPVTKSFNRGEC
As for B4, the “IC50 (nM) in HUVEC proliferation assay” value amounted to 5.03 nM.

B5: R-SBL3 (bispecific antibody, human IgG1, kappa)
heavy 1: [letters of about 120 residues not shown]ASPREPQVCTLPPSREEMTKNQVSLSCAVKGFYPSDIAVEWESNGQPENNYKTTPPVLDSDGSFFLVSKLTVDKSRWQQGNVFSCSVMHEALHNHYTQKSLSLSPGKGGGGSGGGGSGGGGSASTKGPSVFPLAPSSRSTSESTAALGCLVKDYFPEPVTVSWNSGALTSGVHTFPAVLQSSGLYSLSSVVTVPSSSLGTKTYTCNVDHKPSNTKVDKRV[letters of human IgG1 Fc with changes not shown]
light 1: [letters of about 100 residues not shown]RTPREPQVYTLPPCREEMTKNQVSLWCLVKGFYPSDIAVEWESNGQPENNYKTTPPVLDSDGSFFLYSKLTVDKSRWQQGNVFSCSVMHEALHNHYTQKSLSLSPGKGGGGSGGGGSGGGGSRTVAAPSVFIFPPSDEQLKSGTASVVCLLNNFYPREAKVQWKVDNALQSGNSQESVTEQDSKDSTYSLSSTLTLSKADYEKHKVYACEVTHQGLSSPVTKSFNRGES
heavy 2: EVQLVESGGGLVQPGGSLRLSCAASGYTFTNYGMNWVRQAPGKGLEWVGWINTYTGEPTYAADFKRRFTFSLDTSKSTAYLQMNSLRAEDTAVYYCAKYPHYYGSSHWYFDVWGQGTLVTVSSASTKGPSVFPLAPSSKSTSGGTAALGCLVKDYFPEPVTVSWNSGALTSGVHTFPAVLQSSGLYSLSSVVTVPSSSLGTQTYICNVNHKPSNTKVDKKV[letters of human IgG1 Fc with changes not shown]
light 2: DIQMTQSPSSLSASVGDRVTITCSASQDISNYLNWYQQKPGKAPKVLIYFTSSLHSGVPSRFSGSGSGTDFTLTISSLQPEDFATYYCQQYSTVPWTFGQGTKVEIKRTVAAPSVFIFPPSDEQLKSGTASVVCLLNNFYPREAKVQWKVDNALQSGNSQESVTEQDSKDSTYSLSSTLTLSKADYEKHKVYACEVTHQGLSSPVTKSFNRGEC
With B5, the “IC50 (nM) in HUVEC proliferation assay” value came out at 7.77 nM.
